# In PMC4336329 (PLoS ONE, 2015):
# The campaign covered roughly 310,000 compounds. About 14,000 (4.5%) showed an effect of 50% or more. The effect is printed as a negative number. The list shows a part of the results.
# Biological target: human ether-à-go-go-related gene (hERG) potassium channel (human, UniProt Q12809)
# Assay: primary screen, population patch clamp on CHO cells stably expressing hERG
# 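Further: peak tail current of the secondary pulse compared with the same well before compound.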
# Chain of human ether-à-go-go-related gene (hERG) potassium channel (Q12809 whole entry, looked up): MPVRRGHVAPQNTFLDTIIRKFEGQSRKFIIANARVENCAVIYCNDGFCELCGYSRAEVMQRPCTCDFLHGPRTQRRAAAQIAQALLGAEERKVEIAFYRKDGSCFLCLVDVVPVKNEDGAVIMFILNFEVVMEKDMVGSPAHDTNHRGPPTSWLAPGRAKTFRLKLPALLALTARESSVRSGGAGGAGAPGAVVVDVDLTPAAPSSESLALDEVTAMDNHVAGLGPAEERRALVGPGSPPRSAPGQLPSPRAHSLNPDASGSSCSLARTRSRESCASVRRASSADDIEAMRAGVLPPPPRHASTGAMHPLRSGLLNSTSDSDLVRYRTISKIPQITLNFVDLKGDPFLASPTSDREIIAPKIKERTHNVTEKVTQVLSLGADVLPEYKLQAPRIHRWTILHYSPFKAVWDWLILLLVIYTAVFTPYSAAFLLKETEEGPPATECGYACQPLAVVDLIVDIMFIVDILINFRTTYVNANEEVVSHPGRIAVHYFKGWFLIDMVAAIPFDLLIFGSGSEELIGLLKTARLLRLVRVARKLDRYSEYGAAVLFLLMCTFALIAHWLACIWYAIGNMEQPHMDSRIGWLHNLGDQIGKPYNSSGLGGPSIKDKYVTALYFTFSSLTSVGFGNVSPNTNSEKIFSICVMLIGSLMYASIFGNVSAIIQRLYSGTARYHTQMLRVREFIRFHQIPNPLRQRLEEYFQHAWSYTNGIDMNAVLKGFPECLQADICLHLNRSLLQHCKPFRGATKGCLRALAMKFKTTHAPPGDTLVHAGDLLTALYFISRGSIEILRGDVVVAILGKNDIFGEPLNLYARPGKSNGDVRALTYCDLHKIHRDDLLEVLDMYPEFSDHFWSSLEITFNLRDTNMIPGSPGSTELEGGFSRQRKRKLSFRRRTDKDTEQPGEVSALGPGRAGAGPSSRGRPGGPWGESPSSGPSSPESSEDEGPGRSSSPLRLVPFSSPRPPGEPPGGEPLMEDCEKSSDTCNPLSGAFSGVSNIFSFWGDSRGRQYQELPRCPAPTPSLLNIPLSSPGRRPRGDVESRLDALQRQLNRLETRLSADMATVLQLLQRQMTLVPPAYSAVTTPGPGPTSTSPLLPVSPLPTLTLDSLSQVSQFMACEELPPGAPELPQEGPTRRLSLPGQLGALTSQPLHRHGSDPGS
row,Structure (SMILES),"hERG current change (%, negative = inhibition) at 10uM"
1,Cc1ccc(C)c(C(C)NC(=O)C2CC=CCC2C(=O)O)c1 (stereo not drawn),2.2%
2,CCCN(C(=O)COC(=O)C12CCC(=O)N1c1ccccc1S2)c1c(N)n(Cc2ccccc2)c(=O)[nH]c1=O (stereo not drawn),13.3%
3,CCn1c2ccccc2c2cc(NC(=O)c3ccco3)ccc21,-5.72%
4,CCOC(=O)CNc1nc(C#N)nc(N2CCOCC2)n1,1.53%
5,O=C(NCc1ccccc1)C1=C[C@@H](c2ccccc2)C[C@@H](OCCCCO)O1,-36.6%
6,CCOC(=O)Oc1c(OC)cc(C(=O)O[C@@H]2C[C@@H]3CN4CCc5c([nH]c6cc(OC)ccc56)[C@H]4C[C@@H]3[C@H](C(=O)OC)[C@H]2OC)cc1OC,7.16%
7,CC(=O)c1cc2c(cc1N/C(=N/S(=O)(=O)c1ccc(Br)cc1)c1ccccc1)OCO2,17.9%
8,CC1CCN(S(=O)(=O)c2cccc(C(=O)Nc3nccs3)c2)CC1,0.638%
9,COc1ccc(C2Nc3cccc4cccc(c34)N2)cc1Br,9.97%
10,COc1ccc(Cl)cc1NC(=O)CN(C)C(=O)c1n[nH]c2ccccc12,-8.65%
11,C=C(C)c1sc(-c2ccccc2)nc1C,-7.49%
12,Cc1cccc(NC(=O)c2cc(NC(=O)C3CCCCC3C(=O)O)ccc2N2CCOCC2)c1 (stereo not drawn),2.19%
13,O=[N+]([O-])c1cccc(C(=NCc2ccccc2)NO)c1,15.9%
14,Cc1ccccc1N1C(=O)/C(=C/c2ccco2)C(=O)NC1=S,16.5%
15,COc1ccc(CCNc2nc3ccccc3n3nnnc23)cc1OC,1.05%
16,COc1cc(/C=N/NC(=O)c2ccncc2)ccc1OC(C)=O,4.72%
17,COc1ccc(S(=O)(=O)n2ccc(-c3ccc4c(c3)CCC(C)(C)O4)n2)cc1,-1.94%
18,O=C(O)c1ccccc1C(=O)c1ccc(Br)s1,24.7%
19,O=C(NC(=S)NC1CCCCCCCCCCC1)c1cccnc1,-4.46%
20,CC(Oc1ccccc1)C(=O)NC1CC(C)(C)NC(C)(C)C1 (stereo not drawn),6%
21,COc1cccc(CNC(=O)CCCC(=O)Nc2cccc([N+](=O)[O-])c2)c1,-26.1%
22,O=C1C=CC(=O)N1c1cccc(-c2ccccc2)c1,3.16%
23,Cc1oncc1C(=O)N1CCCC(CO)(Cc2ccc(F)cc2F)C1 (stereo not drawn),-3.66%

row,Structure (SMILES),"hERG current change (%, negative = inhibition) at 10uM"
1,CN(C)c1ccc(CNCCC2CCOC(C)(C)C2)cc1.Cl (stereo not drawn),9.65%
2,Cc1ccc(C(=O)NC2CCCCNC2=O)cc1 (stereo not drawn),7.39%
3,COc1cccc(CN2CCNC(=O)C2CC(=O)N(C)CCC2CCOCC2)c1OC (stereo not drawn),6.07%
4,CCN(c1ccccc1)c1ncnc2c1cnn2-c1ccccc1,-11.2%
5,CC1CCCCN1CCCNC(=O)c1c(O)nc2ccccn2c1=O (stereo not drawn),15.9%
6,CC(=O)N1CCc2cc(S(=O)(=O)NC(CC(C)C)C(=O)Nc3ccc4c(c3)OCCO4)ccc21 (stereo not drawn),3.09%
7,CCOc1cc(C(=S)N2CCOCC2)ccc1OC(=O)c1cc(OC)c(OC)c(OC)c1,13.6%
8,CCCCSCCCNC(=O)Nc1ccc(CC)cc1,2.41%
9,Cc1ccccc1N1CCN(S(=O)(=O)Cc2ccccc2)CC1,8.57%
10,COc1ccc(NC(=O)C2CCCN(S(=O)(=O)c3ccc4c(c3)CC(C)N4C(C)=O)C2)cc1 (stereo not drawn),24.3%
11,S=C(Cc1ccccc1)NCCc1ccccc1,-25.4%
12,COc1nnc(-c2ccc(N3CCCCC3)c(NC(=O)C3CCCCC3)c2)c2ccccc12,-3.9%
13,O=C(O)c1ccc(NS(=O)(=O)/C=C/c2ccccc2)cc1O,5.19%
14,CC(C)(C)NC(=O)CSc1nc2ccc(Nc3nc(N4CCOCC4)nc(N4CCOCC4)n3)cc2s1,-2.64%
15,O=C(c1ccc(CNS(=O)(=O)c2cccc(Cl)c2)cc1)N1CCCC1,3.81%
16,O=C(NC1=NCCS1)c1ccc(Cl)c(S(=O)(=O)N2CCc3ccccc32)c1,3.46%
17,COc1cccc(NC(=S)N(CCc2c(C)[nH]c3ccccc23)Cc2cccs2)c1,13.5%
18,Nc1cc2c([N+](=O)[O-])cccc2o1,5.18%
19,COc1cccc(OC)c1CN1CCCC(C(=O)c2cccc(Cl)c2)C1 (stereo not drawn),-69%
20,CCN(CC(=O)NC1CCS(=O)(=O)C1)c1nc(-c2ccccc2)nc2ccccc12 (stereo not drawn),-35.6%
21,O=c1cc(CO)oc(CN2CCN(CCO)CC2)c1O,-4.45%
22,COC(=O)c1sc(SC)c(S(=O)(=O)C(C)C)c1N,-6.06%
